Assay [1] addresses T1, Xpress-FIP4 (pcDNA3.1-HisB/FIP4) (UniProt Q86YS3).
T1 sequence: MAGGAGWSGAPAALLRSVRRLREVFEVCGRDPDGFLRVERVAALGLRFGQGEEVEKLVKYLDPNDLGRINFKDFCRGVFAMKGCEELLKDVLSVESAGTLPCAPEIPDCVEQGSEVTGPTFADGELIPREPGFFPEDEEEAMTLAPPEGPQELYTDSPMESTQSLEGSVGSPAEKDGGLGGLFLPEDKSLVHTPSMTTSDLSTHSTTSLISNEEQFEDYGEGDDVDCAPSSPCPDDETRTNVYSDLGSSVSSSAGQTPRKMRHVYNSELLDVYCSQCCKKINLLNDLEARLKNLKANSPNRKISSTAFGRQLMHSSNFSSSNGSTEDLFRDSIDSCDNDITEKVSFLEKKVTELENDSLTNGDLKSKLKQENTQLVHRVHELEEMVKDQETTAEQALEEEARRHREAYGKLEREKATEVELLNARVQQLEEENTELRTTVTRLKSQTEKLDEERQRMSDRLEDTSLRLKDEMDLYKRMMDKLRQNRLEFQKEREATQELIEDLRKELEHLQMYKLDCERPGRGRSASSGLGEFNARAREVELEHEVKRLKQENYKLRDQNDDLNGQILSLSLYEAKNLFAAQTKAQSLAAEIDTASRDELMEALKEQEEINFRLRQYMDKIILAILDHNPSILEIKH
Briefly: co-IP; HeLa cells co-transfected; lysate in 125 mM NaCl, 0.5% Igepal CA-630, 50 mM HEPES pH 7.4, 1 mM MgCl2; anti-Xpress antibody on magnetic beads, 3 h at 4°C; blot with anti-GFP.

By UniProt entry, the sequences of proteins in these tests, tags left out. Where a name states a change or a piece, a line headed by the entry shows the natural chain unless it says otherwise. Residues count along the entry.
UniProt Q99816: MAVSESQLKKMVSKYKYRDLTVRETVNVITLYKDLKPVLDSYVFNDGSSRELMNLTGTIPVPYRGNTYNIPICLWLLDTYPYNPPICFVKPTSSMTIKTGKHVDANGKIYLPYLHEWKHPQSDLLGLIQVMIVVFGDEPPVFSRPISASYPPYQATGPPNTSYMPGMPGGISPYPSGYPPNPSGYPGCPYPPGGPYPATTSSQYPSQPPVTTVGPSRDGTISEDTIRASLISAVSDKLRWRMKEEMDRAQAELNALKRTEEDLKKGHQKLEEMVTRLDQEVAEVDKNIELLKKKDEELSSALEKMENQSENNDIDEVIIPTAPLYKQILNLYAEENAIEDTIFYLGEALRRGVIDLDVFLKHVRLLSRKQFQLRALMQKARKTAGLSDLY
TSG101 235-313 (pVJL10-TSG101 235-313): residues 235-313 of Q99816
TSG101 235-273 (pVJL10-TSG101 235-273): residues 235-273 of Q99816
TSG101 235-257 (pVJL10-TSG101 235-257): residues 235-257 of Q99816
TSG101 274-313 (pVJL10-TSG101 274-313): residues 274-313 of Q99816
UniProt Q7L804: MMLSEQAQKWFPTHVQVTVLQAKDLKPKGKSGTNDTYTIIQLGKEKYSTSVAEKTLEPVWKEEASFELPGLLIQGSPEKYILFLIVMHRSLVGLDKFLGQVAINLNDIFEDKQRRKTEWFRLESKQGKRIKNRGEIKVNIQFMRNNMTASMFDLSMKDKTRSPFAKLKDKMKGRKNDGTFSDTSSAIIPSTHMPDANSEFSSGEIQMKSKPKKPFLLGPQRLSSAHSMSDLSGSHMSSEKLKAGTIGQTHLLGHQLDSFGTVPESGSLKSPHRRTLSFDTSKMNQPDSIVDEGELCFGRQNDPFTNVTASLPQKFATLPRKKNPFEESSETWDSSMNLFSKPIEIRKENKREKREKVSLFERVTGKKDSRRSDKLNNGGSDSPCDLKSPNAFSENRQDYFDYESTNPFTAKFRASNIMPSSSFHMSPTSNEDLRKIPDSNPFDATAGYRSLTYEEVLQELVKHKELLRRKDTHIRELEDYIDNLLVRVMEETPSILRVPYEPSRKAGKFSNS

The target of assay [2] is T2, Xpress-FIP3 (pcDNA3.1-HisB/FIP3) (UniProt O75154).
T2 sequence: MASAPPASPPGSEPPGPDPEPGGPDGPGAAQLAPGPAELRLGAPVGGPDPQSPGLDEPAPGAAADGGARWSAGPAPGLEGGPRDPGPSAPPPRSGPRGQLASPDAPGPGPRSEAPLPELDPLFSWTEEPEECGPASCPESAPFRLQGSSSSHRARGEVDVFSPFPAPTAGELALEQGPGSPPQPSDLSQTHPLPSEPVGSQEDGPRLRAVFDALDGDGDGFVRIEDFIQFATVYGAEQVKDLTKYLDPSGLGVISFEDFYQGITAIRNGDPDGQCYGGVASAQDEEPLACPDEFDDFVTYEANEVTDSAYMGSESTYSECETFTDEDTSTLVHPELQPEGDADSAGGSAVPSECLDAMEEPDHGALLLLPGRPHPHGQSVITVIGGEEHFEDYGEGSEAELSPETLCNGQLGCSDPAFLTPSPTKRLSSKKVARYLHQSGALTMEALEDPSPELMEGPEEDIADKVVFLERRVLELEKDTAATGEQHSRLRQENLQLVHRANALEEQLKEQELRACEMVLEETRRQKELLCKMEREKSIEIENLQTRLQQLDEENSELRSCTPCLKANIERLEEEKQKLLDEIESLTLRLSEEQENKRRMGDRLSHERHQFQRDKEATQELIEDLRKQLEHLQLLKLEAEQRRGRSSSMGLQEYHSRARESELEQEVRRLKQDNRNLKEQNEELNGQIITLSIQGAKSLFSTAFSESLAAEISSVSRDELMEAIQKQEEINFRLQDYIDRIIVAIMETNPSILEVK
The assay is described as above.

For assay [3], the target named is TSG101 (tumor susceptibility gene 101), pVJL10-TSG101 two-hybrid bait (UniProt Q99816). Briefly: two-hybrid; pVJL10 (bait) and pGADGH (prey) constructs co-transformed into S. cerevisiae L40; growth on medium lacking tryptophan, leucine and histidine with 1 mM 3-AT, 30°C.
Assay [4] concerns the target TSG101 235-313 (pVJL10-TSG101 235-313) (UniProt Q99816). The assay is described as above.
The target in assay [5] is TSG101 235-257 (pVJL10-TSG101 235-257) (UniProt Q99816). Described as above.
In assay [6] the target is TSG101 K257P (pVJL10-TSG101 K257P) (UniProt Q99816). The assay is described as above.
Assay [7] deals with TSG101 274-290 (pVJL10-TSG101 274-290) (UniProt Q99816). Described as above.
In assay [8] the target is TSG101 (tumor susceptibility gene 101), pVJL10-TSG101 two-hybrid bait (UniProt Q99816). The assay is described as above. This is another data set of the same source.
In assay [9] the target is TSG101 274-313 (pVJL10-TSG101 274-313) (UniProt Q99816). The assay is described as above.
For assay [10], the target named is TSG101 N287P (pVJL10-TSG101 N287P) (UniProt Q99816). The assay is described as above.
Assay [11] deals with TSG101 235-273 (pVJL10-TSG101 235-273) (UniProt Q99816). The assay is described as above.
The target in assay [12] is TSG101 V274P (pVJL10-TSG101 V274P) (UniProt Q99816). Described as above.

Read-outs that look alike come from different tables or passages of the source. These are yes or no findings as the source states them, for the method shown. For part of these data: In cells and extracts the contact can be indirect. Some entries that bind do so weakly or less than the wild type. For part of these data: Sequences can lack the tags named with a protein.

For GFP-TSG101 (from UniProt Q99816 1-390), the binding entry in [1] and in assay [2] was “binds” each time.
Take “FIP2, pGADGH/FIP2 two-hybrid prey (from UniProt Q7L804 1-512)”: the binding entry in [3] is “no binding”.

B1: FIP4, pGADGH/FIP4 two-hybrid prey (protein, UniProt Q86YS3 1-637)
chain: MAGGAGWSGAPAALLRSVRRLREVFEVCGRDPDGFLRVERVAALGLRFGQGEEVEKLVKYLDPNDLGRINFKDFCRGVFAMKGCEELLKDVLSVESAGTLPCAPEIPDCVEQGSEVTGPTFADGELIPREPGFFPEDEEEAMTLAPPEGPQELYTDSPMESTQSLEGSVGSPAEKDGGLGGLFLPEDKSLVHTPSMTTSDLSTHSTTSLISNEEQFEDYGEGDDVDCAPSSPCPDDETRTNVYSDLGSSVSSSAGQTPRKMRHVYNSELLDVYCSQCCKKINLLNDLEARLKNLKANSPNRKISSTAFGRQLMHSSNFSSSNGSTEDLFRDSIDSCDNDITEKVSFLEKKVTELENDSLTNGDLKSKLKQENTQLVHRVHELEEMVKDQETTAEQALEEEARRHREAYGKLEREKATEVELLNARVQQLEEENTELRTTVTRLKSQTEKLDEERQRMSDRLEDTSLRLKDEMDLYKRMMDKLRQNRLEFQKEREATQELIEDLRKELEHLQMYKLDCERPGRGRSASSGLGEFNARAREVELEHEVKRLKQENYKLRDQNDDLNGQILSLSLYEAKNLFAAQTKAQSLAAEIDTASRDELMEALKEQEEINFRLRQYMDKIILAILDHNPSILEIKH
In the case of B1, the binding entry in assay [4] is listed as “binds”; in assay [5], “no binding”; in [6], “no binding”; in assay [7], “no binding”; in assay [8] it was “binds”; in [9], “no binding”. Besides, the binding result in assay [10] is “binds”; in [11] it was “no binding”; in assay [12], “no binding”.

The record behind these values is paper PMC3279423.
